# Measurements reported in the supplement of paper PMC8728848.
# This is one part of the list.
# B1: PFL (Pseudomonas fluorescens) (protein)
# chain: MSKYAVANQWGGSSAPWHPGGTWVLGARDNQNVVAIEIKSGDGGKSFTGTMTYAGEGPIGFKAQRTGQNQYNVENQWGGNDAPWHPGGKWVIGGRDNQNVIALSVTSSDGGKNLSGTNTYANEGPIGFRGQIE
# Key:
# Experiment in all cases: glycan array binding signal (z-score within array); higher = stronger binding
# Conditions in all cases: glycan notation: IUPAC condensed, linker removed
# [1] = molecular target: Gal(a1-3)Gal(b1-4)GlcNAc
# Procedure, shortened: (§1)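 From the Consortium for Functional Glycomics database, 3228 arrays were curated, keeping only those whose protein sequence was available. Binding is given as a within-array Z-score averaged across arrays sharing a protein sequence and across linkers. Negative Z-scores can be read as non-binding.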
# [2] = molecular target: Gal(a1-3)Gal(b1-4)GlcNAc(b1-2)Man
# Procedure, shortened: as §1
# [3] = molecular target: Gal(a1-3)Gal(b1-4)GlcNAc(b1-2)Man(a1-3)[Gal(a1-3)Gal(b1-4)GlcNAc(b1-2)Man(a1-6)]Man(b1-4)GlcNAc(b1-4)GlcNAc
# Procedure, shortened: as §1
# [4] = molecular target: Gal(a1-3)Gal(b1-4)GlcNAc(b1-3)GalNAc
# Procedure, shortened: as §1
# [5] = molecular target: Gal(a1-3)Gal(b1-4)GlcNAc(b1-6)GalNAc
# Procedure, shortened: as §1
# [6] = molecular target: Gal(a1-3)Gal(b1-4)[Fuc(a1-3)]GlcNAc
# Procedure, shortened: as §1
# [7] = molecular target: Gal(a1-3)Gal(b1-4)[Fuc(a1-3)]GlcNAc(b1-2)Man(a1-3)[Gal(a1-3)Gal(b1-4)[Fuc(a1-3)]GlcNAc(b1-2)Man(a1-6)]Man(b1-4)GlcNAc(b1-4)GlcNAc
# Procedure, shortened: as §1
# [8] = molecular target: Gal(a1-3)GalNAc
# Procedure, shortened: as §1
# [9] = molecular target: Gal(a1-3)[Gal(a1-4)]Gal(b1-4)GlcNAc
# Procedure, shortened: as §1
# [10] = molecular target: Gal(a1-4)Gal(b1-3)GlcNAc(b1-2)Man(a1-3)[Gal(a1-4)Gal(b1-3)GlcNAc(b1-2)Man(a1-6)]Man(b1-4)GlcNAc(b1-4)GlcNAc
# Procedure, shortened: as §1
# [11] = molecular target: Gal(a1-4)Gal(b1-4)Glc
# Procedure, shortened: as §1
# [12] = molecular target: Gal(a1-4)Gal(b1-4)GlcNAc
# Procedure, shortened: as §1
# [13] = molecular target: Gal(a1-4)Gal(b1-4)GlcNAc(b1-2)Man(a1-3)[Gal(a1-4)Gal(b1-4)GlcNAc(b1-2)Man(a1-6)]Man(b1-4)GlcNAc(b1-4)GlcNAc
# Procedure, shortened: as §1
# [14] = molecular target: Gal(a1-4)Gal(b1-4)GlcNAc(b1-3)Gal(b1-4)Glc
# Procedure, shortened: as §1
# [15] = molecular target: Gal(a1-4)GlcNAc
# Procedure, shortened: as §1
# [16] = molecular target: Gal(a1-6)Glc
# Procedure, shortened: as §1
# [17] = molecular target: Gal(b1-2)Gal
# Procedure, shortened: as §1
# [18] = molecular target: Gal(b1-3)Gal
# Procedure, shortened: as §1
# [19] = molecular target: Gal(b1-3)Gal(b1-4)GlcNAc
# Procedure, shortened: as §1
# [20] = molecular target: Gal(b1-3)GalNAc
# Procedure, shortened: as §1
# [21] = molecular target: Gal(b1-3)GalNAc(a1-3)[Fuc(a1-2)]Gal(b1-4)Glc
# Procedure, shortened: as §1
# [22] = molecular target: Gal(b1-3)GalNAc(a1-3)[Fuc(a1-2)]Gal(b1-4)GlcNAc
# Procedure, shortened: as §1
# [23] = molecular target: Gal(b1-3)GalNAc(b1-3)Gal
# Procedure, shortened: as §1
# [24] = molecular target: Gal(b1-3)GalNAc(b1-3)Gal(a1-4)Gal(b1-4)Glc
# Procedure, shortened: as §1
# [25] = molecular target: Gal(b1-3)GalNAc(b1-4)Gal(b1-4)Glc
# Procedure, shortened: as §1
# [26] = molecular target: Gal(b1-3)GalNAc(b1-4)[Neu5Ac(a2-3)]Gal(b1-4)Glc
# Procedure, shortened: as §1
# [27] = molecular target: Gal(b1-3)GlcNAc
# Procedure, shortened: as §1
# [28] = molecular target: Gal(b1-3)GlcNAc(a1-3)Gal(b1-4)GlcNAc
# Procedure, shortened: as §1
# [29] = molecular target: Gal(b1-3)GlcNAc(a1-6)Gal(b1-4)GlcNAc
# Procedure, shortened: as §1
# [30] = molecular target: Gal(b1-3)GlcNAc(b1-2)Man
# Procedure, shortened: as §1
# [31] = molecular target: Gal(b1-3)GlcNAc(b1-2)Man(a1-3)[Gal(b1-3)GlcNAc(b1-2)Man(a1-6)]Man(b1-4)GlcNAc(b1-4)GlcNAc
# Procedure, shortened: as §1
# [32] = molecular target: Gal(b1-3)GlcNAc(b1-2)Man(a1-3)[Gal(b1-3)GlcNAc(b1-2)Man(a1-6)]Man(b1-4)GlcNAc(b1-4)[Fuc(a1-6)]GlcNAc
# Procedure, shortened: as §1
# [33] = molecular target: Gal(b1-3)GlcNAc(b1-2)Man(a1-3)[GlcNAc(b1-4)][Gal(b1-3)GlcNAc(b1-2)Man(a1-6)]Man(b1-4)GlcNAc(b1-4)GlcNAc
# Procedure, shortened: as §1
# [34] = molecular target: Gal(b1-3)GlcNAc(b1-2)[Gal(b1-3)GlcNAc(b1-6)]Man(a1-6)[Gal(b1-3)GlcNAc(b1-2)Man(a1-3)]Man(b1-4)GlcNAc(b1-4)GlcNAc
# Procedure, shortened: as §1
# [35] = molecular target: Gal(b1-3)GlcNAc(b1-3)Gal(b1-3)GlcNAc
# Procedure, shortened: as §1
# [36] = molecular target: Gal(b1-3)GlcNAc(b1-3)Gal(b1-4)Glc
# Procedure, shortened: as §1
# [37] = molecular target: Gal(b1-3)GlcNAc(b1-3)Gal(b1-4)GlcNAc
# Procedure, shortened: as §1
# [38] = molecular target: Gal(b1-3)GlcNAc(b1-3)Gal(b1-4)GlcNAc(b1-2)Man(a1-3)[Gal(b1-3)GlcNAc(b1-3)Gal(b1-4)GlcNAc(b1-2)Man(a1-6)]Man(b1-4)GlcNAc(b1-4)GlcNAc
# Procedure, shortened: as §1
# [39] = molecular target: Gal(b1-3)GlcNAc(b1-3)Gal(b1-4)GlcNAc(b1-2)[Gal(b1-3)GlcNAc(b1-3)Gal(b1-4)GlcNAc(b1-6)]Man(a1-6)[Gal(b1-3)GlcNAc(b1-3)Gal(b1-4)GlcNAc(b1-2)Man(a1-3)]Man(b1-4)GlcNAc(b1-4)[Fuc(a1-6)]GlcNAc
# Procedure, shortened: as §1
# [40] = molecular target: Gal(b1-3)GlcNAc(b1-3)Gal(b1-4)GlcNAc(b1-3)Gal(b1-4)GlcNAc(b1-2)[Gal(b1-3)GlcNAc(b1-3)Gal(b1-4)GlcNAc(b1-3)Gal(b1-4)GlcNAc(b1-6)]Man(a1-6)[Gal(b1-3)GlcNAc(b1-3)Gal(b1-4)GlcNAc(b1-3)Gal(b1-4)GlcNAc(b1-2)Man(a1-3)]Man(b1-4)GlcNAc(b1-4)[Fuc(a1-6)]GlcNAc
# Procedure, shortened: as §1
# [41] = molecular target: Gal(b1-3)GlcNAc(b1-3)Gal(b1-4)GlcNAc(b1-6)[Gal(b1-3)GlcNAc(b1-3)]Gal(b1-4)Glc
# Procedure, shortened: as §1
# [42] = molecular target: Gal(b1-3)GlcNAc(b1-3)Gal(b1-4)[Fuc(a1-3)]GlcNAc
# Procedure, shortened: as §1
# [43] = molecular target: Gal(b1-3)GlcNAc(b1-3)Gal(b1-4)[Fuc(a1-3)]GlcNAc(b1-6)[Gal(b1-3)GlcNAc(b1-3)]Gal(b1-4)Glc
# Procedure, shortened: as §1
# [44] = molecular target: Gal(b1-3)GlcNAc(b1-3)GalNAc
# Procedure, shortened: as §1
# [45] = molecular target: Gal(b1-3)GlcNAc(b1-6)Gal(b1-4)GlcNAc
# Procedure, shortened: as §1
binder,measurement,setting,value
B1,glycan array binding signal (z-score),[1],-0.115
same,glycan array binding signal (z-score),[2],-0.116
same,glycan array binding signal (z-score),[3],-0.098
same,glycan array binding signal (z-score),[4],-0.115
same,glycan array binding signal (z-score),[5],-0.118
same,glycan array binding signal (z-score),[6],-0.115
same,glycan array binding signal (z-score),[7],-0.079
same,glycan array binding signal (z-score),[8],-0.117
same,glycan array binding signal (z-score),[9],-0.105
same,glycan array binding signal (z-score),[10],0.084
same,glycan array binding signal (z-score),[11],-0.108
same,glycan array binding signal (z-score),[12],-0.109
same,glycan array binding signal (z-score),[13],-0.103
same,glycan array binding signal (z-score),[14],-0.113
same,glycan array binding signal (z-score),[15],-0.111
same,glycan array binding signal (z-score),[16],-0.116
same,glycan array binding signal (z-score),[17],-0.113
same,glycan array binding signal (z-score),[18],-0.118
same,glycan array binding signal (z-score),[19],-0.117
same,glycan array binding signal (z-score),[20],-0.114
same,glycan array binding signal (z-score),[21],-0.113
same,glycan array binding signal (z-score),[22],-0.113
same,glycan array binding signal (z-score),[23],-0.12
same,glycan array binding signal (z-score),[24],-0.116
same,glycan array binding signal (z-score),[25],-0.115
same,glycan array binding signal (z-score),[26],-0.115
same,glycan array binding signal (z-score),[27],-0.115
same,glycan array binding signal (z-score),[28],-0.118
same,glycan array binding signal (z-score),[29],-0.12
same,glycan array binding signal (z-score),[30],-0.112
same,glycan array binding signal (z-score),[31],0.026
same,glycan array binding signal (z-score),[32],0.052
same,glycan array binding signal (z-score),[33],0.248
same,glycan array binding signal (z-score),[34],0.071
same,glycan array binding signal (z-score),[35],-0.11
same,glycan array binding signal (z-score),[36],-0.119
same,glycan array binding signal (z-score),[37],-0.115
same,glycan array binding signal (z-score),[38],0.01
same,glycan array binding signal (z-score),[39],0.261
same,glycan array binding signal (z-score),[40],0.086
same,glycan array binding signal (z-score),[41],-0.116
same,glycan array binding signal (z-score),[42],-0.115
same,glycan array binding signal (z-score),[43],-0.11
same,glycan array binding signal (z-score),[44],-0.113
same,glycan array binding signal (z-score),[45],-0.114
